{"source": "PubChem BioAssay AID1619", "about": "(SRMLSC, 2009)", "note": "Out of some 220,000 compounds screened, about 830 (0.38%) were called active. This list was built around the results that the source calls inconclusive (neither active nor inactive); the mix of calls is not that of the screen.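 The calls were made as follows: active = compound inhibiting the enzyme by more than half at any dose during confirmatory dose-response retesting; inconclusive = strong single-dose inhibitors picked by rank but not retested; inactive = the rest.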"}
{"target": "Leucine aminopeptidase (Plasmodium falciparum (isolate 3D7)) (UniProt Q8IL11)", "sequence (Q8IL11 whole entry, looked up)": "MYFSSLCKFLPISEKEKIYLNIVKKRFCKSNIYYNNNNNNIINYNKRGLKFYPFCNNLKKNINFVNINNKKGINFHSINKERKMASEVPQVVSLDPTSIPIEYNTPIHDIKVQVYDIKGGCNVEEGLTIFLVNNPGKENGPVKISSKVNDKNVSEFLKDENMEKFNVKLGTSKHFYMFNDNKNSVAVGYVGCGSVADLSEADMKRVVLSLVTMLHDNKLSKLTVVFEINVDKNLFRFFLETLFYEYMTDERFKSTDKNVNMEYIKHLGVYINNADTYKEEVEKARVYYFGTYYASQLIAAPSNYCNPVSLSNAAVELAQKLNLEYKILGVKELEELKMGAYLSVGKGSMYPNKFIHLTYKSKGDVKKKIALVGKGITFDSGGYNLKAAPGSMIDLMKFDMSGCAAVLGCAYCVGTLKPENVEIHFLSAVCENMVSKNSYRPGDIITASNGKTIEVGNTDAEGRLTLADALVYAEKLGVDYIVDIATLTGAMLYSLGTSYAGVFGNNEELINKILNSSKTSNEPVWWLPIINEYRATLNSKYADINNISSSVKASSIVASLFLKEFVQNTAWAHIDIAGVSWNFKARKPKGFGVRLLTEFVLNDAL", "experiment": "P. falciparum M17LAP inhibitors, primary screen, biochemical, fluorogenic H-Leu-NHMec substrate, 1536-well (AID 1619);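 also: plate controls were full reaction with DMSO carrier for no effect and no enzyme background for full effect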", "settings": "recombinant M17LAP, H-Leu-NHMec fluorogenic kinetic assay; at 30 µM; active compounds read high"}
{"molecule": "Cc1cc2c(C(C)C)c(O)c(O)c(C=O)c2c(O)c1-c1c(C)cc2c(C(C)C)c(O)c(O)c(C=O)c2c1O", "inhibition": "inconclusive: 57.9%"}
{"molecule": "O=C1NC(=S)N(Cc2ccco2)C(=O)/C1=C\\c1cccs1", "inhibition": "inconclusive: 80.2%"}
{"molecule": "CC(C)[C@@H]1NC(=O)c2cc([N+](=O)[O-])cc(I)c2NCCCC[C@@H](C(=O)NC(CC(=O)O)C(N)=O)NC(=O)[C@H](CO)NC1=O", "note": "(stereo partly specified)", "inhibition": "inconclusive: 65%"}
{"molecule": "COc1ccc(OC)c(N2C(=O)NC(=O)/C(=C\\c3ccc([N+](=O)[O-])s3)C2=O)c1", "inhibition": "inconclusive: 65%"}
{"molecule": "NC(=O)C(CC(=O)O)NC(=O)[C@@H]1CCCCNc2c(I)cc([N+](=O)[O-])cc2C(=O)N[C@@H](CO)C(=O)NCC(=O)N1", "note": "(stereo partly specified)", "inhibition": "inconclusive: 62.2%"}
{"molecule": "O=C(NC1(C(F)(F)F)Oc2ccc(Cl)cc2O1)N1CCC2(CC1)OCCO2", "note": "(stereo unspecified)", "inhibition": "inconclusive: 71.8%"}
